Experimental data as given in the antibiotic and cytotoxicity screens of Wong et al. (2023).
The other results are listed elsewhere or left out.

These molecules were tested on HSkMC (human skeletal muscle cells) (assay: cytotoxicity call (relative viability < 0.9)). Conditions: 10 µM.

| SMILES | cytotoxicity call |
| --- | --- |
| COc1ccc(NC(=O)N(C)C[C@@H]2Oc3ccc(NC(=O)C4CC4)cc3C(=O)N([C@H](C)CO)C[C@@H]2C)cc1 | inactive |
| O=C1O[C@H](c2ccccc2)[C@H](c2ccccc2)N2[C@H]1[C@@H](C(=O)N1CCN(c3ncccn3)CC1)[C@]1(C(=O)Nc3ccc(C#CC4=CCCCC4)cc31)[C@H]2c1ccc(O)cc1 | inactive |
| CNC(=O)c1cc(S(=O)(=O)N(C)C[C@@H]2Oc3ccc(NC(=O)Nc4ccc(F)cc4)cc3CC(=O)N([C@@H](C)CO)C[C@@H]2C)cs1 | inactive |
| O=C(C[C@@H]1CC[C@@H]2[C@H](COC[C@H](O)CN2C(=O)c2cnccn2)O1)NCc1ccc(Oc2ccccc2)cc1 | inactive |
| COc1ccc(NC(=O)N(C)C[C@H]2OCCCC[C@H](C)Oc3ccc(NC(=O)Nc4cccc5ccccc45)cc3C(=O)N([C@H](C)CO)C[C@H]2C)cc1 | inactive |
| C[C@H]1CN([C@@H](C)CO)S(=O)(=O)c2ccc(-c3cccnc3)cc2O[C@H]1CN(C)C(=O)NC1CCCC1 | inactive |
| CC(C)NC(=O)N(C)C[C@H]1Oc2ccc(NC(=O)NC3CCCCC3)cc2C(=O)N([C@H](C)CO)C[C@@H]1C | inactive |
| COc1ccc(S(=O)(=O)N(C)C[C@H]2Oc3c(NC(=O)c4ccncc4)cccc3C(=O)N([C@H](C)CO)C[C@H]2C)cc1 | inactive |
| CC(C)CC#Cc1ccc2c(c1)O[C@@H](CN(C)S(=O)(=O)c1cccc(F)c1)[C@H](C)CN([C@H](C)CO)S2(=O)=O | inactive |
| C[C@H](CO)N1C[C@H](C)[C@H](CN(C)Cc2ccc(-c3ccccc3)cc2)Oc2ccc(NC(=O)Nc3ccc(C(F)(F)F)cc3)cc2CC1=O | active |
